Test results as given in PubChem BioAssay AID1476 (National Center for Advancing Translational Sciences (NCATS), 2009).
“And” between values parts separate entries of the source, which are not always exact repeats. Equal values may be shown once. The campaign covered roughly 200,000 compounds. About 4,500 (2.2%) were called active. The inconclusive results got no clear call from the source; some entries with a clear call stand among them for comparison. Calls follow the shape of the dose curve; as a rule, active = well fitted inhibition curve with a large enough effect; inconclusive = small, poorly fitted or top-dose-only effect, or effect the other way; inactive = flat fitted curve, though single readings scatter. Where the call is inconclusive, the potency comes from a doubtful curve fit.

target: Cruzipain (Trypanosoma cruzi) (UniProt P25779); experiment: qHTS Assay for Promiscuous and Specific Inhibitors of Cruzain (without detergent); conditions: purified cruzain, Z-FR-AMC fluorescence, no detergent; also: nearly all actives have a fitted effect of over 40% in size;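 as to max response, negative = inhibition: plate controls were enzyme without inhibitor for no effect and buffer without enzyme for full effect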
UniProt P25779, sequence (P25779 whole entry, looked up): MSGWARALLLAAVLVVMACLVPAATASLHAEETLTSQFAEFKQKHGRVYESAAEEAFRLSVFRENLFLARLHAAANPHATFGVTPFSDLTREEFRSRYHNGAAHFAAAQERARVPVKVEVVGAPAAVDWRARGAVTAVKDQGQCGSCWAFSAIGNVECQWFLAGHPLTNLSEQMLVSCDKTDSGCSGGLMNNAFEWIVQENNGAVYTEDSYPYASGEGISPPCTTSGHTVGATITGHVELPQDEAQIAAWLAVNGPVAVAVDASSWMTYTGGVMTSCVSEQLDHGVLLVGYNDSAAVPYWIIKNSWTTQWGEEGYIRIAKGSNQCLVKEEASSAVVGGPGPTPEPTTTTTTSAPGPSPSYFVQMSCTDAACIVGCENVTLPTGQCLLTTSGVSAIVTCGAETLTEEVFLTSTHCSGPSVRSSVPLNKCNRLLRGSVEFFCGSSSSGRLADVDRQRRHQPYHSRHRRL
How it was run: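 Purified cruzain at 1.5 nM, pre-incubated 15 min with compound at room temperature in 100 mM sodium acetate pH 5.5, 5 mM DTT, 0.00005% Triton X-100. Reaction started with 2 uM Z-FR-AMC; AMC fluorescence increase over 60 s gives rate.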
Potency is read from the fitted curve at half-maximal effect; tags tell the direction and shape of the fitted curve.

Row | Compound | Potency | max response, negative = inhibition
1 | CS(=O)(=O)N1CCC2(CC1)CN(c1ncccn1)C2 | active: 15.8 µM | –
2 | Cc1ccc(N(CC(O)Cn2c3ccccc3c3ccccc32)S(C)(=O)=O)cc1 (centres undefined) | inconclusive: 39.8 µM [activator, single point] | –
3 | O=C(Nc1ccc2nc(-c3ccco3)c(-c3ccco3)nc2c1)NC1CC1 | active: 2.51 µM | –
4 | Cc1onc(-c2c(F)cccc2Cl)c1C(=O)Nc1sc2c(c1C(N)=O)CCC2 | inconclusive: 20 µM [inhibitor, partial curve] | –
5 | CC1CCC(NC(=O)CCc2cn(Cc3ccc(F)cc3)c3ccccc23)CC1 (centres undefined) | – | inactive: 3.01%
6 | COc1ccc(C(=O)NC2(C(F)(F)F)NC(=O)N(CCCc3ccccc3)C2=O)cc1OC (centres undefined) | inconclusive: 39.8 µM [activator, single point] | –
7 | COc1ccc(OC)c(/C=C/C(=O)OCC(=O)Nc2cccc(Oc3ccccc3)c2)c1 | inconclusive: 31.6 µM [inhibitor, single point] | –
8 | O=C(COc1ccccc1)NC(=S)Nc1ccc2c3c(cccc13)CC2 | inconclusive: 39.8 µM [inhibitor, single point] | –
9 | O=C(O)Cn1nc(N2CCN(c3ccccc3)CC2)ccc1=O | – | inactive: -6.98%
10 | C=C1c2cccc(OC)c2O[C@H](C(=O)OCC)[C@@H]1CC(CC)CCCC (some centres undefined) | inconclusive: 50.1 µM [activator, single point] | –
11 | Cc1sc2c(c1C)c(=O)n(Cc1ccccc1)c(=O)n2CC(=O)Nc1cccc(Cl)c1 | inconclusive: 39.8 µM [inhibitor, single point] | –
12 | CC1=NN(c2nc(-c3ccc(C)cc3)cs2)C(=O)C1N=Nc1cccc(C)c1 (centres undefined) | active: 12.6 µM | –
13 | CCOc1ccc(CCNC(=O)c2sc3nc4n(c(=O)c3c2C)CCCC4)cc1 | – | inactive: -21.4%
14 | CCCc1cc(=O)oc2cc(C)c3c(-c4ccccc4)c(C)oc3c12 | – | inactive: -5.72%
15 | Cn1c2ccc(F)cc2c2nnc(SCCN3CCCCC3)nc21 | active: 12.6 µM | –
16 | CC(/C=N\N1CCN(c2ccc(Cl)cc2)CC1)=C\c1ccccc1 | active: 7.94 µM | –
17 | Cc1ccccc1NC1=C/C(=N\S(=O)(=O)c2cccs2)c2ccccc2C1=O | inconclusive: 39.8 µM [inhibitor, single point] | –
18 | COc1cccc(-c2nc3sc4c(c3c(=O)[nH]2)CCCCC4)c1 | inconclusive: 39.8 µM [inhibitor, single point] | –
19 | CCc1ccc(S(=O)(=O)c2cnc(SCC(=O)Nc3ccc(OC)cc3OC)[nH]c2=O)cc1 | – | inactive: 15.9%
20 | CC(C)Cn1c(CN(Cc2ccccc2)Cc2ccccc2)nc2c1c(=O)n(C)c(=O)n2C | inconclusive: 25.1 µM [activator, partial curve] | –
21 | CCc1cccc(C)c1N(C(=O)Cn1c(=O)[nH]c2ccccc21)C(C)COC (centres undefined) | inconclusive: 31.6 µM [activator, single point] | –
22 | O=S(=O)(Nc1nc2ccc(S(=O)(=O)N3CCCC3)cc2s1)c1ccc(F)cc1 | active: 15.8 µM | –
23 | NC(C(=O)N[C@@H]1C(=O)N2C(C(=O)O)=C(Cl)CS[C@H]12)c1ccccc1 (some centres undefined) | – | inactive: -4.01%

Row | Compound | Potency | max response, negative = inhibition
24 | COc1ccc2c(-c3ccccc3)cc(SCC(=O)N(C)C3CCS(=O)(=O)C3)nc2c1 (centres undefined) | inconclusive: 39.8 µM [activator, single point] | –
25 | Fc1cccc2sc(Nc3nc4ccccc4s3)nc12 | inconclusive: 25.1 µM [inhibitor, single point] | –
26 | CCOC(=O)c1c(N)sc2c1CCN(Cc1ccccc1)C2 | inconclusive: 39.8 µM [inhibitor, single point] | –
27 | CC1(c2ccccc2)CC(C)(C)N(C(=O)c2ccccc2Cl)c2ccccc21 (centres undefined) | – | inactive: 1.22%
28 | N#Cc1c(NC(=O)C2CC(c3ccccc3O)=NO2)sc2c1CCC2 (centres undefined) | inconclusive: 39.8 µM [inhibitor, single point] | –
29 | Cn1c(=O)[nH]c(=O)c2c1nc(OC(=O)c1ccccc1)n2CC(O)COc1ccc(F)cc1 (centres undefined) | inconclusive: 31.6 µM [activator, single point] | –
30 | Cc1nn(Cc2ccc(Cl)cc2Cl)c(Cl)c1/C=N/NC(=O)CNc1cccc(C(F)(F)F)c1 | inconclusive: 15.8 µM [inhibitor, single point] | –
31 | COc1ccc(C(Cl)=C(c2ccc(OC)cc2)c2ccc(OC)cc2)cc1 | active: 12.6 µM and active: 20 µM | –
32 | CCCOC(=O)c1cccc(NC(=O)c2cccnc2)c1 | – | inactive: -9.69%
33 | O=C(Oc1c(-c2ccccc2Cl)oc2ccccc2c1=O)c1ccc(Cl)cc1 | inconclusive: 39.8 µM [inhibitor, single point] | –
34 | COc1ccc(CN2C(=O)c3ccccc3C(/C=N/OCc3ccc(Cl)cc3)C2=O)cc1 (centres undefined) | inconclusive: 31.6 µM [inhibitor, single point] | –
35 | O=[N+]([O-])c1ccc(C(c2sc3nc(-c4ccco4)nn3c2O)N2CCC3(CC2)OCCO3)cc1 (centres undefined) | – | inactive: 21.2%
36 | CCc1ccc(CNC(=O)C2CCN(c3nnc(-n4c(C)ccc4C)s3)CC2)cc1 | – | inactive: 13.9%
37 | c1ccc(N2CCN(c3nc4cc5c(cc4s3)OCO5)CC2)cc1 | active: 12.6 µM | –
38 | Cc1ccc2nc(N3CCC(C(=O)O)CC3)nc(-c3ccccc3)c2c1 | inconclusive: 39.8 µM [activator, single point] | –
39 | Cc1ccc(-c2nc3ccccc3[nH]2)cc1NC(=O)c1ccc2c(c1)OCO2 | inconclusive: 39.8 µM [inhibitor, single point] | –
40 | Cc1cccc(-c2nnc(SCCC(=O)O)o2)c1 | – | inactive: -1.73%
41 | COc1ccc(CCC(=O)NCc2ccc3c(c2)CCN3C(=O)c2cccc(C)c2)cc1 | – | inactive: 21.2%
42 | COc1ccc(C(=O)N2CCC[C@@]3(CCN(Cc4cc(C(F)(F)F)cc(C(F)(F)F)c4)C3)C2)cc1 | – | inactive: 13.9%
43 | Cc1cc(NC(=O)CN(c2cccc(C)c2C)S(=O)(=O)c2ccccc2)ccc1Br | active: 6.31 µM | –
44 | CCCSCCCNC(=O)CN1C(=O)COc2ccc(S(=O)(=O)N3CCCCCC3)cc21 | – | inactive: 15.8%
45 | Cc1ccc(N=C2NC(=O)S/C2=C\c2ccco2)cc1 | inconclusive: 7.94 µM [inhibitor, single point] | –
46 | CCOc1ccccc1Nc1ccc2cc(S(=O)(=O)N3CCCCC3)ccc2n1 | inconclusive: 39.8 µM [inhibitor, single point] | –

Row | Compound | Potency | max response, negative = inhibition
47 | CCOC(=O)c1c(C)oc2nc(C)nc(NCCc3ccc(S(N)(=O)=O)cc3)c12 | – | inactive: 4.06%
48 | O=C(COc1ccc2ccccc2c1)NNC(=O)c1cccs1 | inconclusive: 39.8 µM [inhibitor, single point] | –
49 | O=C(NCc1ccco1)c1cc(-c2ccc(F)cc2)on1 | inconclusive: 39.8 µM [inhibitor, single point] | –
50 | Cc1ccc(-n2c(CNc3ccc(F)cc3)nnc2SCC(=O)N2CCOCC2)cc1 | inconclusive: 31.6 µM [activator, partial curve] | –
51 | Cc1ccc(OCC(=O)Nc2ccc(-c3nc4ccc(C)cc4o3)cc2)cc1 | active: 25.1 µM | –
52 | CCOc1ccc(C(=O)Nc2ccc3nc(SCC(=O)N4CCOCC4)sc3c2)cc1 | inconclusive: 20 µM [activator, single point] | –
53 | N#Cc1ccccc1NC(=O)C(=O)NCC(c1cccnc1)N1CCN(c2ccccc2)CC1 (centres undefined) | inconclusive: 39.8 µM [activator, single point] | –
54 | CCCCOc1ccccc1NC(=O)Cn1c(-c2nonc2N)nc2ccccc21 | inconclusive: 31.6 µM [inhibitor, single point] | –
55 | C[C@@]1(CCOCc2ccccc2)NC(=O)NC1=O | – | inactive: -2.84%
56 | CCn1c(SCC(=O)N2CCOCC2)nc2oc3c(Cl)cc(Cl)cc3c(=O)c2c1=O | – | inactive: -13.9%
57 | Cc1nc(-c2coc3c(O)c(O)ccc3c2=O)cs1 | – | inactive: -12.5%
58 | Cc1cc(C(=O)CSc2nnc(-c3cccc(F)c3)n2N)c(C)n1Cc1ccc2c(c1)OCO2 | active: 20 µM | –
59 | CCN(CC)C(=O)C1CCCN(c2ccc([N+](=O)[O-])cc2/C=N/NC(=O)c2cccc([N+](=O)[O-])c2)C1 (centres undefined) | inconclusive: 20 µM [activator, partial curve] | –
60 | O=C(Cn1c(C(=O)N2CCN(C3CCCCC3)CC2)cc2sccc21)c1ccccc1 | – | inactive: -0.262%
61 | O=S(=O)(c1cc(-c2nnc(-c3ccc(Br)cc3)o2)ccc1Br)N1CCCCCC1 | inconclusive: 39.8 µM [inhibitor, single point] | –
62 | Fc1ccc(CNc2cc(-c3ccccc3)nc3nncn23)cc1 | – | inactive: 19.8%
63 | COc1cccc(Nc2nc(-c3sc(NC(=O)c4ccco4)nc3C)cs2)c1 | inconclusive: 31.6 µM [inhibitor, single point] | –
64 | COc1cc2c(cc1NC(=O)CN1CCN(S(=O)(=O)c3ccccc3F)CC1)oc1ccccc12 | active: 25.1 µM | –
65 | Nc1c(C(=O)Nc2ccc(Cl)cc2F)sc2nc(-c3cccs3)ccc12 | active: 25.1 µM | –
66 | COc1ccc(OC)c(NC(=O)C(CCSC)NS(=O)(=O)c2cccs2)c1 (centres undefined) | – | inactive: 4.11%
67 | CCN(CC)C(=O)c1ccc(NC(=O)CCn2nc(-c3ccc(Cl)cc3)c3ccccc3c2=O)cc1 | inconclusive: 20 µM [activator, partial curve] | –
68 | Cc1ccc(N(CC(=O)Nc2ccc(Br)c(C)c2)S(=O)(=O)c2cccs2)cc1 | inconclusive: 39.8 µM [inhibitor, single point] | –
69 | COc1cc(-c2nnc(SCC(=O)NC(C)C)o2)cc(OC)c1OC | inconclusive: 39.8 µM [activator, single point] | –
